Experimental data taken from the RNAGym collection of RNA variant scans (doi:10.1073/pnas.2313332121).
This sample is rich in variants without activity.

B1: TPR 5TU (parent)
chain: GGAUCUUCUCGAUCUAACAAAAAAGACAAAUCUGCCACAAAGCUUGAGAGCAUCUUCGGAUGCAGAGGCGGCAGCCUUCGGUGGCGCGAUAGCGCCAACGUUCUCAACUAUGACACGCAAAACGCGUGCUCCGUUGAAUGGAGUUUAUCAUG

Variants of: B1
Assay: polymerase ribozyme fitness, log enrichment relative to wild type (log ratio); higher = more active; in vitro selection for triplet polymerase activity
Outline: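 Each subunit of a heterodimeric triplet polymerase ribozyme was represented by a PCR-built, transcribed mutant library that underwent triplicate single-round in vitro selection with frozen incubation at −7 °C. Extended constructs were recovered by gel excision, streptavidin-bead capture and RT-PCR, and Illumina sequencing of input and output libraries kept genotypes with ≥10 input reads and ≥1 read per output. Fitness is the logarithm of genotype enrichment relative to wild-type enrichment, from inverse-variance-weighted replicate averages, with a logarithm base of 2.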

Point of comparison: C10U C93U, “polymerase ribozyme fitness (log ratio)” value -4.06. Against it:
- C10U U53A C85A A115G G124C G141C U148G — lower, ≤ -4.2
- C10U G46A C85G A113U G128A G143U U148A — lower, ≤ -4.2
- C10U A16C U44G C79A G84A U111G — lower, ≤ -4.2
- C10G A19C A28C A60G G68U U144G — lower, ≤ -4.2
- C10A A91U U101G — within 0.2 log units, -4.05
- C10U G68A C93U U104C A106G — lower, ≤ -4.2
- C10G C75G C96U A120C — lower, ≤ -4.2
- C10A A52G U55A G59A C85A A89U — lower, ≤ -4.2
- C10G G70C C87A G140U — lower, ≤ -4.2
- C10G C14G G94A U139C — lower, ≤ -4.2
- C10A A49C G84U A122G U139A — lower, ≤ -4.2
- C10U A20U C57A U145C — higher, -3.45
- C10G A89G C103U U134G G141A U151A — lower, ≤ -4.2
- C10G C14U G50A U53A C95G A97G — lower, ≤ -4.2
- C10U G42C U53A A66G A91G A110C — lower, ≤ -4.2
- C10A C93G — lower, ≤ -4.2
- C10U A24G G50U C76A — lower, ≤ -4.2
- C10U A29G A47C U55G A60U C95U U144A U146G — lower, ≤ -4.2
- C10U A89C G141C U148A — lower, ≤ -4.2
- C10G A12C G94C U135G — lower, ≤ -4.2
- C10G U55G C75G C76G G84U C118A U139C — lower, ≤ -4.2
- C10A C32G C51U U55C A64C C105U C114U G124U — lower, ≤ -4.2
- C10U A17C U31A A64G A122U U145G — lower, ≤ -4.2
- C10G A16C A26C A73U U101G C116A — lower, ≤ -4.2
- C10A G25C A30G U31A G74C G83U C118G G143C — lower, ≤ -4.2
- C10G U146G — within 0.2 log units, -4.19
- C10A A30U G50C C85G C87U G100A U144A U146C — lower, ≤ -4.2
- C10G C96G A107G G152U — lower, ≤ -4.2
- C10A A30U U77A G92C C118G U146C — lower, ≤ -4.2
- C10A G50C U53C A73G C85A C87G — lower, ≤ -4.2
- C10U U13G A23U G62A C96U U134A U144A — lower, ≤ -4.2
- C10G A29C A30U G48U U55A A89U C93G G128U — lower, ≤ -4.2
- C10U A22C A28U A39C G81A U90G C93G A122U — lower, ≤ -4.2
- C10G U15G A26C C54A G88C C108U A137U G140C U146C — lower, ≤ -4.2
- C10G C43U A91U U144C U146A — lower, ≤ -4.2
- C10U A19U A60C G86A A91C A97U U130G G136C U146C — lower, ≤ -4.2
- C10G U55A U77A G92C C95A G143U U144G — lower, ≤ -4.2
- C10G A28C C51U C87U G88A A91C G117C G124U U130G — lower, ≤ -4.2
- C10U A39G G42U G59A A60C C63U A91U C105U A115C A142C — lower, ≤ -4.2
- C10A C32A A91G C103G — lower, ≤ -4.2
- C10G A20G G50U G59C C87U — lower, ≤ -4.2
- C10U A23U G80C C87G A107G G124C — lower, ≤ -4.2
- C10A A23G A28U C54U C87U C105U C149G — lower, ≤ -4.2
- C10U G92U C95A C105A A107C G152A — lower, ≤ -4.2
- C10U A41G C57U A138G — lower, ≤ -4.2
- C10U A23U A39U G86A G92A C105G A142U — lower, ≤ -4.2
- C10A G59A A91U U111A U127C A138U A150G — lower, ≤ -4.2
- C10U C57U G59A C93A G117U — lower, ≤ -4.2
- C10A U45A C51U A106G G152U — lower, ≤ -4.2
- C10G C54U C76G C95U U101C — lower, ≤ -4.2
- C10G A12C A20C A23U A28G A49C A91C U111G G141A — lower, ≤ -4.2
- C10U G46A U55A U61A G81U C93A — lower, ≤ -4.2
- C10U C27G C54U G92C C114G — lower, ≤ -4.2
- C10A A37U C79A C85U C87A — lower, ≤ -4.2
- C10A G70A A113U U135G — lower, ≤ -4.2
- C10U C27U U31G A49U U78G C93U C149G — lower, ≤ -4.2
- C10U U44A C75U C85A A91G U134A U146A — lower, ≤ -4.2
- C10A G42U A60U C75G C93U A98C U104G U144G — lower, ≤ -4.2
- C10G A40C U78G G84U G88U G141U — lower, ≤ -4.2
- C10U A26U G42A A47U A89C C96U A107U G112C — lower, ≤ -4.2
- C10G A41C G71A G86A C125G A142U — lower, ≤ -4.2
- C10A A29U G34A A120G C132G A147C — lower, ≤ -4.2
- C10G A19G A37C U56G G84U G100C C114U — lower, ≤ -4.2
- C10A A52C G74A C85A G143U — lower, ≤ -4.2
- C10G A40U G58C G86A C114U U134G G143C — lower, ≤ -4.2
- C10U A12U A20C G48C G83A A89G C95A G133U — lower, ≤ -4.2
- C10G A12G C27G A49G G62C G67A G68U C93U — lower, ≤ -4.2
- C10G A16G U56A G59U C87A — lower, ≤ -4.2
- C10G G11U G71U C93G A138G — lower, ≤ -4.2
- C10G G42A A52U G94A A97U A120G C129G — lower, ≤ -4.2
- C10U A12C G34A G92C — within 0.2 log units, -4.16
- C10A C54G G80C G81A C85U C129A U135C — lower, ≤ -4.2
- C10U U31G A66C G86U — lower, ≤ -4.2
- C10G A40U A47G A60U A91G G92A — lower, ≤ -4.2
- C10U C14G A19G A24U U33C U61G G86A C116A A120C — lower, ≤ -4.2
- C10U G58A U61A G84U U148G — lower, ≤ -4.2
- C10U G50C C79A C103A G141C — lower, ≤ -4.2
- C10G A16C A39C G74A G88U C129A A142C — lower, ≤ -4.2
- C10U C43G G71C A91U C93A — lower, ≤ -4.2
- C10G C43U C87U — lower, ≤ -4.2
- C10A U44A G88C A89G A115C G140U A142G — lower, ≤ -4.2
- C10U A22U A28U U55G G68C U101C — lower, ≤ -4.2
